# Data reported in the supplement of paper PMC9588766.
# Structures can show the parent of a compound that is named as a salt. In all, about 1,900 compounds were measured (“cell viability of compound + 1 nM pemigatinib relative to pemigatinib-only (DMSO) wells”: median about 0.95, lowest 2% from about 0.22 on). This is one part of the list.
# System: PDC-DUC18828
# Assay: cell viability of compound + 1 nM pemigatinib relative to pemigatinib-only (DMSO) wells (fraction); PDC-DUC18828 is a patient-derived cholangiocarcinoma cell line; higher = less growth inhibition
# Conditions: first compound 1 µM; pemigatinib concentration 1 nM; 72 h
# Protocol: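 Selleck Bioactive library screen in the patient-derived FGFR2 fusion-positive ICC cell line PDC-DUC18828 (500 cells/well). Each compound was tested at 1 uM with 1 nM pemigatinib, in triplicate, for 72 h. Viability was read by CellTiter-Glo and normalised to plate DMSO controls. Value is the paper's averaged normalised viability.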
row,SMILES,cell viability
1,CNC(=O)c1ccc(N2C(=S)N(c3cnc(C#N)c(C(F)(F)F)c3)C(=O)C23CCC3)cc1F + CCN1C(=O)N(c2c(F)c(OC)cc(OC)c2F)Cc2cnc3[nH]c(CN4CCOCC4)cc3c21 [pemigatinib],0.92
2,O=C(c1ccc(OCCN2CCCCC2)cc1)c1c(-c2ccc(O)cc2)sc2cc(O)ccc12 [Raloxifene HCl] + CCN1C(=O)N(c2c(F)c(OC)cc(OC)c2F)Cc2cnc3[nH]c(CN4CCOCC4)cc3c21 [pemigatinib],0.888
3,COC1(c2sc3c(N4CCOCC4)nc(-c4cnc(N)nc4)nc3c2C)COC1 + CCN1C(=O)N(c2c(F)c(OC)cc(OC)c2F)Cc2cnc3[nH]c(CN4CCOCC4)cc3c21 [pemigatinib],0.225
4,CCOC(=O)C1=C(C)NC(C)=C(C(=O)OC)C1c1cccc([N+](=O)[O-])c1 (stereo not given) [Nitrendipine] + CCN1C(=O)N(c2c(F)c(OC)cc(OC)c2F)Cc2cnc3[nH]c(CN4CCOCC4)cc3c21 [pemigatinib],0.903
5,COc1ccc(-c2coc3cc(O)cc(O)c3c2=O)cc1 [Biochanin A] + CCN1C(=O)N(c2c(F)c(OC)cc(OC)c2F)Cc2cnc3[nH]c(CN4CCOCC4)cc3c21 [pemigatinib],0.95
6,O=S(=O)(NCCNC/C=C/c1ccc(Br)cc1)c1cccc2cnccc12 + CCN1C(=O)N(c2c(F)c(OC)cc(OC)c2F)Cc2cnc3[nH]c(CN4CCOCC4)cc3c21 [pemigatinib],1.02
7,NS(=O)(=O)NCCNc1nonc1/C(=N/O)Nc1ccc(F)c(Br)c1 + CCN1C(=O)N(c2c(F)c(OC)cc(OC)c2F)Cc2cnc3[nH]c(CN4CCOCC4)cc3c21 [pemigatinib],0.979
8,O[C@@H](COc1cccc2ncccc12)CN1CCN(C2c3ccccc3[C@@H]3[C@H](c4ccccc42)C3(F)F)CC1 (stereo not given in full) + CCN1C(=O)N(c2c(F)c(OC)cc(OC)c2F)Cc2cnc3[nH]c(CN4CCOCC4)cc3c21 [pemigatinib],1
9,COC1=CC(=O)C[C@@H](C)[C@]12Oc1c(Cl)c(OC)cc(OC)c1C2=O [Griseofulvin] + CCN1C(=O)N(c2c(F)c(OC)cc(OC)c2F)Cc2cnc3[nH]c(CN4CCOCC4)cc3c21 [pemigatinib],0.953
10,CCC(=O)NCC[C@@H]1CCc2ccc3c(c21)CCO3 [Ramelteon] + CCN1C(=O)N(c2c(F)c(OC)cc(OC)c2F)Cc2cnc3[nH]c(CN4CCOCC4)cc3c21 [pemigatinib],0.991
11,CC(C)(C)c1cc(/C=C(\C#N)C(N)=S)cc(C(C)(C)C)c1O [Tyrphostin AG 879] + CCN1C(=O)N(c2c(F)c(OC)cc(OC)c2F)Cc2cnc3[nH]c(CN4CCOCC4)cc3c21 [pemigatinib],0.667
12,CN(C)CCC(c1ccc(Cl)cc1)c1ccccn1 (stereo not given) [Chlorpheniramine Maleate] + CCN1C(=O)N(c2c(F)c(OC)cc(OC)c2F)Cc2cnc3[nH]c(CN4CCOCC4)cc3c21 [pemigatinib],0.981
13,OCC(O)CN1CCN(c2ccccc2)CC1 (stereo not given) [Dropropizine] + CCN1C(=O)N(c2c(F)c(OC)cc(OC)c2F)Cc2cnc3[nH]c(CN4CCOCC4)cc3c21 [pemigatinib],1.04
14,COc1ccccc1N1CCN(CCN2C(=O)CC3(CCCC3)CC2=O)CC1 + CCN1C(=O)N(c2c(F)c(OC)cc(OC)c2F)Cc2cnc3[nH]c(CN4CCOCC4)cc3c21 [pemigatinib],0.986
15,CCCC(CCC)C(=O)O [Valproic acid sodium salt (Sodium valproate)] + CCN1C(=O)N(c2c(F)c(OC)cc(OC)c2F)Cc2cnc3[nH]c(CN4CCOCC4)cc3c21 [pemigatinib],1.05
16,CCCC(CCC)C(=O)O [Divalproex Sodium] + CCN1C(=O)N(c2c(F)c(OC)cc(OC)c2F)Cc2cnc3[nH]c(CN4CCOCC4)cc3c21 [pemigatinib],0.996
17,CN(C)[C@@H](CCOc1cccc2ccccc12)c1ccccc1 [Dapoxetine HCl] + CCN1C(=O)N(c2c(F)c(OC)cc(OC)c2F)Cc2cnc3[nH]c(CN4CCOCC4)cc3c21 [pemigatinib],0.973
18,"CC[C@H](Nc1ncnc2[nH]cnc12)c1nc2cccc(F)c2c(=O)n1-c1ccccc1 [CAL-101 (Idelalisib, GS-1101)] + CCN1C(=O)N(c2c(F)c(OC)cc(OC)c2F)Cc2cnc3[nH]c(CN4CCOCC4)cc3c21 [pemigatinib]",0.936
19,O=CN1CC/C(=C/c2ccc3c(c2)OCO3)C1=O + CCN1C(=O)N(c2c(F)c(OC)cc(OC)c2F)Cc2cnc3[nH]c(CN4CCOCC4)cc3c21 [pemigatinib],0.873
20,CC(C)c1noc(N2CCC(COc3ccc(-c4ccc(S(C)(=O)=O)cc4)nc3)CC2)n1 + CCN1C(=O)N(c2c(F)c(OC)cc(OC)c2F)Cc2cnc3[nH]c(CN4CCOCC4)cc3c21 [pemigatinib],1.03
21,O=C(NC1CCNCC1)c1n[nH]cc1NC(=O)c1c(Cl)cccc1Cl + CCN1C(=O)N(c2c(F)c(OC)cc(OC)c2F)Cc2cnc3[nH]c(CN4CCOCC4)cc3c21 [pemigatinib],0.435
22,O=C1CCc2c(ccc3ccccc23)O1 [Splitomicin] + CCN1C(=O)N(c2c(F)c(OC)cc(OC)c2F)Cc2cnc3[nH]c(CN4CCOCC4)cc3c21 [pemigatinib],0.922
23,CC[C@@H]1C(=O)N(C)c2cnc(Nc3ccc(C(=O)NC4CCN(C)CC4)cc3OC)nc2N1C1CCCC1 + CCN1C(=O)N(c2c(F)c(OC)cc(OC)c2F)Cc2cnc3[nH]c(CN4CCOCC4)cc3c21 [pemigatinib],0.321
24,Cc1c(OCC(F)(F)F)ccnc1C[S+]([O-])c1nc2ccccc2[nH]1 (stereo not given) [Lansoprazole] + CCN1C(=O)N(c2c(F)c(OC)cc(OC)c2F)Cc2cnc3[nH]c(CN4CCOCC4)cc3c21 [pemigatinib],0.969
25,CCS(=O)(=O)N1CCC([C@@H](C)n2c(C)c(C(=O)NCc3c(OC)cc(C)[nH]c3=O)c3ccccc32)CC1 + CCN1C(=O)N(c2c(F)c(OC)cc(OC)c2F)Cc2cnc3[nH]c(CN4CCOCC4)cc3c21 [pemigatinib],0.905
